Measurements as given in PubChem BioAssay AID686979 (National Center for Advancing Translational Sciences (NCATS), 2013).
The campaign covered roughly 420,000 compounds. About 50,000 (12%) were called active. Inconclusive means that the source gave no clear call. Such entries were picked first, then a sample of the others. The call rests on the fitted dose curve; in most records, active means well fitted inhibition curve with a large enough effect; inconclusive means small, poorly fitted or top-dose-only effect; inactive means flat fitted curve, though single readings scatter. No potency is given beside an inconclusive call; the fits are too rough.

Assay: qHTS for Inhibitors of human tyrosyl-DNA phosphodiesterase 1 (TDP1): qHTS in cells in presence of CPT; further: nearly all actives have a fitted effect of over 55% in size
Conditions: chicken DT40 Tdp1-/-;hTDP1 cells + 20 nM CPT, ATP luminescence, 48 h; activity change, negative = growth inhibition: at 46.2 µM (top of the series)
In short: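 Cell growth measured by CellTiter-Glo luminescence after a minimum 48 h, 37 C compound exposure with 20 nM CPT in Tdp1-knockout DT40 cells stably expressing hTDP1, seeded 400/well; qHTS titration format.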
On the % scale 0 is the no-effect control and ±100 the full control effect; potency means the concentration at half of the fitted maximal effect; tags describe the fitted curve by direction and shape.

SMILES	Potency	activity change, negative = growth inhibition
CCn1c(CC2C(=O)N(C)c3ccc(Br)cc32)nc2ccccc2c1=O (configuration not stated)	active: 5.17 µM	–
CCN1CCN(c2nn3c(=O)c4ccccc4nc3c3ccccc23)CC1	inconclusive [inhibitor, single point]	–
O=C(/C(=C/O)N=Nc1cccc(C(F)(F)F)c1)c1ccccc1	inconclusive [inhibitor, single point]	–
CC(=O)Nc1ccc(Nc2ncnc3sc4c(c23)CCCC4)cc1	inconclusive [inhibitor, full curve, poor fit]	–
Cc1cccc(NC(=O)c2cccc3c2-c2ccccc2C3=O)n1	inconclusive [inhibitor, single point]	–
O=C(O)C1CCCCC1C(=O)Nc1ccc(S(=O)(=O)N2CCCCCC2)cc1 (configuration not stated)	inactive	–
COC(=O)c1ccc(CNC(=O)CN(CCC(C)C)S(=O)(=O)c2ccc3c(c2)OCCO3)cc1	inconclusive [inhibitor, partial curve, poor fit]	–
COCc1ccc(C(=O)N2CCCCC2C(=O)Nc2ccc(-n3nc(C)cc3C)cc2)o1 (configuration not stated)	inconclusive [inhibitor, single point]	–
O=C(Nc1ccc2nc3n(c(=O)c2c1)CCCC3)c1cccnc1Cl	inconclusive [inhibitor, single point]	–
CCOc1ccc(NC(=O)C2CCN(C(=O)NC3CCCCC3)CC2)cc1	inconclusive [inhibitor, partial curve]	–
CC1CCCCN1C(=O)COc1ccccc1F (configuration not stated)	inactive	–
O=C(Nc1ccccc1)Nc1ccc(Cl)nc1Cl	inconclusive [inhibitor, partial curve, poor fit]	–
O=C(O)/C=C/C(=O)NCCCc1ccccc1	inconclusive [inhibitor, single point]	–
COc1cc(OC)c(NC(=O)N2CC=C(c3c[nH]c4ccccc34)CC2)cc1Cl	inconclusive [inhibitor, single point]	–
COc1cccc(C(=O)Nc2ccc(C(=O)OCc3cc(=O)n4nc(C5CC5)sc4n3)cc2)c1	inactive	–
O=C(CCC1CCN(C(=O)c2cccc(Cl)c2F)CC1)Nc1ccccc1	inconclusive [inhibitor, single point]	–
CC(C)OCCCn1c(=O)c2ccccc2n2c(CCC(=O)NC3CCN(Cc4ccccc4)CC3)nnc12	inconclusive [inhibitor, partial curve]	–
O=C(Nc1cc(Cl)ccc1Cl)N1CCN(C(=O)Nc2cc(Cl)ccc2Cl)CC1	–	inconclusive: -35.7% [inhibitor]
Cn1ncc(Cl)c1C(=O)N/N=C/c1ccccn1	inconclusive [inhibitor, single point]	–
CCCN1C(=O)C2(c3ccccc31)c1c(oc3ccccc3c1=O)C(=O)N2CCCOC(C)C (configuration not stated)	inconclusive [inhibitor, single point]	–
O=C(c1ccco1)N1CCN(C(=O)c2cnn(-c3cccc(F)c3)c2C2CCNCC2)CC1	inactive	–

SMILES	Potency	activity change, negative = growth inhibition
Cc1cccc(-c2nc(SCC(=O)N(C)c3ccccc3)c3c(=O)n(C)c(=O)n(C)c3n2)c1	inconclusive [inhibitor, single point]	–
O=c1[nH]c2c(cnn2-c2ccc(Cl)cc2)c(=O)n1-c1cccc(Cl)c1	–	inconclusive: -33.9% [inhibitor]
Cc1ccc(C(=O)COC(=O)c2cc(Cl)ccc2O)cc1[N+](=O)[O-]	inconclusive [inhibitor, full curve, poor fit]	–
OCC1OC(n2cnc3c(Cl)nc(Cl)nc32)C(O)C1O (configuration not stated)	inconclusive [inhibitor, single point]	–
COc1ccc(OC)c(NC(=O)c2c(C)oc3ncnc(N4CCOCC4)c23)c1	inconclusive [inhibitor, single point]	–
COc1ccc(NS(=O)(=O)c2ccc(C)c(C(=O)NCC(c3ccco3)N3CCCCC3)c2)cc1 (configuration not stated)	inconclusive [inhibitor, single point]	–
CC1CCN(C(=O)C(C)Sc2nc(-c3ccccc3)cc(C(F)(F)F)n2)CC1 (configuration not stated)	active: 25.9 µM	–
O=C(CCC(=O)c1ccc(F)cc1)Nc1cccc(Br)c1	inactive	–
CCOC(=O)c1ccc(-c2ccc(/C=N/NC(=O)CN(c3cccc(C)c3)S(C)(=O)=O)o2)cc1	inconclusive [inhibitor, single point]	–
O=C(c1cccc(Cl)c1)N1CCC(c2nc3ccccc3o2)CC1	inconclusive [inhibitor, single point]	–
CCN(CC(=O)NC(C)C)C(=O)c1ccc(Cl)cc1	inactive	–
Cc1oc2ccc(O)cc2c1C(=O)c1ccc([N+](=O)[O-])cc1	active: 20.6 µM	–
O=C(NCCc1ccccc1)c1ccc(Br)o1	inconclusive [inhibitor, single point]	–
COc1cc2c(cc1OC)CN(c1nc(CN3CCOCC3)nc3sc4c(c13)CCC(C)C4)CC2 (configuration not stated)	active: 11.6 µM	–
COc1ccc(/C=C2/SC(=O)N(CCCCCC(=O)Nc3ccccc3C(=O)O)C2=S)cc1	inconclusive [inhibitor, full curve, poor fit]	–
CNc1ncncc1-c1ccccc1CN(C)C	inactive	–
COc1cc(CCN2C(=O)N[C@@H](CCc3ccccc3)C(C(C)=O)=C2C)cc(OC)c1OC	inconclusive [inhibitor, single point]	–
CCc1noc(C)c1C(=O)N1CCCC(CCC(=O)NCc2ccc(F)c(F)c2)C1 (configuration not stated)	inconclusive [inhibitor, single point]	–
Cc1cccc(NC(=O)Cc2noc3ccccc23)c1	–	inconclusive: -30.6% [inhibitor]
CCOC(=O)c1cc2cc(-c3c(C(=O)OCC)oc4cc(O)cc(O)c4c3=O)ccc2o1	inconclusive [inhibitor, single point]	–
O=C(COc1ccccc1[N+](=O)[O-])N(C1CCCCC1)C1CCS(=O)(=O)C1 (configuration not stated)	inconclusive [inhibitor, single point]	–
